Measurements published in paper PMC4336329 (PLoS ONE, 2015).
Screen size: about 310,000 compounds; about 14,000 (4.5%) showed an effect of 50% or more. The effect is printed as a negative number. Some of the results follow.
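Note: peak tail current of the secondary pulse compared with the same well before compound.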

The compounds below were run against human ether-à-go-go-related gene (hERG) potassium channel (human, UniProt Q12809) (assay: primary screen, population patch clamp on CHO cells stably expressing hERG).
Chain of human ether-à-go-go-related gene (hERG) potassium channel (Q12809 whole entry, looked up): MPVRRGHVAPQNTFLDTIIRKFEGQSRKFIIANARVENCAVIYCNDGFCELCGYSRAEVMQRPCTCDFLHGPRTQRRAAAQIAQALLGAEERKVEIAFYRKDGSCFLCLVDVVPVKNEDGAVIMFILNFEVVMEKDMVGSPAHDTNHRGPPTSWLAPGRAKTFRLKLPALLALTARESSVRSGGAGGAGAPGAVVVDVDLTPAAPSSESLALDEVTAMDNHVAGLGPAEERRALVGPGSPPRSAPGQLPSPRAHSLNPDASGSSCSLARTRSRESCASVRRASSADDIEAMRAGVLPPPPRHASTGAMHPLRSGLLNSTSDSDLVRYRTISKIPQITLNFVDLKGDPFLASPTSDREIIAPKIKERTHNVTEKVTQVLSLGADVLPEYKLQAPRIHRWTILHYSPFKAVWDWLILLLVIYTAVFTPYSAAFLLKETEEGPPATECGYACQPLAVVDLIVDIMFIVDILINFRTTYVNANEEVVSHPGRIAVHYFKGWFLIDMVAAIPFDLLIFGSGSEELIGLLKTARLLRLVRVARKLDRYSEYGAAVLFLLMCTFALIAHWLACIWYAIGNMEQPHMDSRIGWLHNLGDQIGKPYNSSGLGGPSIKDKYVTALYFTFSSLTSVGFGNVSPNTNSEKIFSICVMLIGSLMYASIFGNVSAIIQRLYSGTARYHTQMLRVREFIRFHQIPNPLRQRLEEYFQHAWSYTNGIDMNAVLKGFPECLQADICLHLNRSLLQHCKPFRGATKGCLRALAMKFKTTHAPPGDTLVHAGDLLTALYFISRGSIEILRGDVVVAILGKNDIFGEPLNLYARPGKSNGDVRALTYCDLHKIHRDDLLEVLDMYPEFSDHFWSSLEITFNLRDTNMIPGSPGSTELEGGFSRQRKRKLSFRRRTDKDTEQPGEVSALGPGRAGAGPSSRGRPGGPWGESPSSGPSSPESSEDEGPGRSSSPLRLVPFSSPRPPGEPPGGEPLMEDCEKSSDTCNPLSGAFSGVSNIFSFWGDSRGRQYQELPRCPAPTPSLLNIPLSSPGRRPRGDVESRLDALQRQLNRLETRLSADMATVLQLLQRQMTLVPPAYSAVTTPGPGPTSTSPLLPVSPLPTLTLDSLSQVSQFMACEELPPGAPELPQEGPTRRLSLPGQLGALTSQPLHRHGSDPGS
With `CCCCOc1cccc(C(=O)Nc2ccc(S(=O)(=O)Nc3cc(C)on3)cc2)c1` the “hERG current change (%, negative = inhibition) at 10uM” value was 2.15%.
With `COc1ccc(N2CCN(C(CNC(=O)C(=O)NC3CCCC3)c3ccco3)CC2)cc1` (stereo not drawn) the “hERG current change (%, negative = inhibition) at 10uM” value was -14.7%.
With `O=C(NCc1ccccn1)c1ccc2c(=O)n(CCc3ccccc3)c(=O)[nH]c2c1` the “hERG current change (%, negative = inhibition) at 10uM” value was 8.63%.
With `COc1ccc(CCNC(=O)C2CCN(c3ccc(N4CCOCC4)nn3)CC2)c(OC)c1` the “hERG current change (%, negative = inhibition) at 10uM” value was 0.848%.
With `Cc1ccc(C)c(S(=O)(=O)N2CCN(C(=O)c3ccc(N4CCCC4)c([N+](=O)[O-])c3)CC2)c1` the “hERG current change (%, negative = inhibition) at 10uM” value was -9.46%.
With `O=C(Cn1cnc2c(nnn2-c2ccccc2)c1=O)N1CCOCC1` the “hERG current change (%, negative = inhibition) at 10uM” value was -0.495%.
With `COc1cc(NC(=S)N2CCN(c3ccccn3)CC2)cc(OC)c1OC` the “hERG current change (%, negative = inhibition) at 10uM” value was -1.95%.
With `Cn1cccc1CC(=O)N/N=C/c1cccc2ccccc12` the “hERG current change (%, negative = inhibition) at 10uM” value was 12.3%.
For `CC(Sc1nnc(Cc2cccs2)n1C1CCCCC1)C(=O)NCc1ccco1` (stereo not drawn), the “hERG current change (%, negative = inhibition) at 10uM” value was -5.59%.
In the case of `C=CCn1c(C)c(C(C)=O)c(N2CCN(C(c3ccccc3)c3ccccc3)CC2)nc1=S`, the “hERG current change (%, negative = inhibition) at 10uM” value is reported as 17.4%.
For `Cc1ccccc1NC(=O)C1CC(=O)N(c2ccc3c4c(cccc24)CC3)C1` (stereo not drawn), the “hERG current change (%, negative = inhibition) at 10uM” value was 4.88%.
For `C=CCn1cc(C(=O)c2cc(Br)ccc2O)cc(C#N)c1=O`, the “hERG current change (%, negative = inhibition) at 10uM” value was -17.5%.
In the case of `O=C(COc1ccc(F)cc1)N1CCCc2ccccc21`, the “hERG current change (%, negative = inhibition) at 10uM” value is reported as 2.02%.
For `CCOC(=O)C1CCCN(C(c2ccccn2)c2c(C)[nH]c3ccccc23)C1` (stereo not drawn), the “hERG current change (%, negative = inhibition) at 10uM” value was -54.3%.
For `CCOC(=O)C(=O)/C(C#N)=C/Nc1ccc(Cl)cc1`, the “hERG current change (%, negative = inhibition) at 10uM” value was 16.1%.
For `Cc1c(Cl)cccc1NC(=O)c1cc(C2CC2)on1`, the “hERG current change (%, negative = inhibition) at 10uM” value was -21.2%.
With `Cc1cc(C)nc(NC(=O)c2ccc(Cl)cc2Cl)n1` the “hERG current change (%, negative = inhibition) at 10uM” value was 7.52%.
For `Cc1c(/C=N/Nc2ccc(C(=O)O)cc2)c2ccccc2n1C`, the “hERG current change (%, negative = inhibition) at 10uM” value was 1.41%.
For `Cc1cc(Cl)ccc1OCC(=O)NC(=S)Nc1ccc(Cl)cn1`, the “hERG current change (%, negative = inhibition) at 10uM” value was 10.9%.
For `COc1ccc(OCCOC(=O)C(C)NS(=O)(=O)c2ccc(NC(C)=O)cc2)cc1` (stereo not drawn), the “hERG current change (%, negative = inhibition) at 10uM” value was -7.73%.
In the case of `O=C(CN(Cc1ccco1)C(=O)c1ccc(Cl)cc1)Nc1c(Cl)cc(Cl)cc1Cl`, the “hERG current change (%, negative = inhibition) at 10uM” value is reported as 7.76%.
In the case of `CN(C)S(=O)(=O)N1CCC(CO)(Cc2cccc(C(F)(F)F)c2)CC1`, the “hERG current change (%, negative = inhibition) at 10uM” value is reported as -4.25%.
With `CC(=O)N1CSCC1C(=O)NNS(=O)(=O)c1ccccc1` (stereo not drawn) the “hERG current change (%, negative = inhibition) at 10uM” value was 6.44%.
In the case of `CC(Sc1nccn1C)C(=O)NC1(C#N)CCCCC1` (stereo not drawn), the “hERG current change (%, negative = inhibition) at 10uM” value is reported as 6.19%.
In the case of `CCCSc1cc(N)cc([N+](=O)[O-])c1`, the “hERG current change (%, negative = inhibition) at 10uM” value is reported as -7.57%.
With `C#CCOCCOCCOCCNc1nc(N2CCN(C(=O)[C@H]([C@@H](C)CC)n3cc([C@@H](N)CO)nn3)CC2)nc(N2CCN(C(=O)[C@H](Cc3ccc(O)cc3)n3cc([C@@H](N)C(C)CC)nn3)CC2)n1.Cl` (stereo partly drawn) the “hERG current change (%, negative = inhibition) at 10uM” value was 0.411%.
`CCC(C)[C@@H](C(=O)N1CCNCC1)n1cc(CCCCN)nn1.Cl` (stereo partly drawn) was tested, and the “hERG current change (%, negative = inhibition) at 10uM” value was 32.8%.
For `COc1cccc(/C=N/n2nnnc2N)c1`, the “hERG current change (%, negative = inhibition) at 10uM” value was 9%.
With `CCOC(=O)/C=C(\C)Nc1cc(C)nn1-c1ccccc1` the “hERG current change (%, negative = inhibition) at 10uM” value was 3.84%.
`CC1CCCN(CCOCCOc2ccc(Br)cc2Cl)C1.O=C(O)C(=O)O` (stereo not drawn) was tested, and the “hERG current change (%, negative = inhibition) at 10uM” value was -71%.
For `COc1ccccc1NC(=O)NNC(=O)c1ccc2ccccc2c1`, the “hERG current change (%, negative = inhibition) at 10uM” value was 24.4%.
In the case of `O=C(NCCO)c1cc([N+](=O)[O-])cc2c1C=Cc1ccccc1O2`, the “hERG current change (%, negative = inhibition) at 10uM” value is reported as -31.4%.
With `Cc1cccc(N2C(=O)/C(=C/c3ccc(N4CCN(C)CC4)o3)C(=O)NC2=S)c1C` the “hERG current change (%, negative = inhibition) at 10uM” value was 4.19%.
With `COc1ccc(N(Cc2cc3cccc(C)c3[nH]c2=O)S(=O)(=O)c2ccc(Cl)cc2)cc1` the “hERG current change (%, negative = inhibition) at 10uM” value was 17.4%.
`CCn1c(-c2cccc(S(=O)(=O)N3CCCC3)c2)n[nH]c1=S` was tested, and the “hERG current change (%, negative = inhibition) at 10uM” value was 0.861%.
`CN(C)S(=O)(=O)c1cccc(NC(=O)c2cc(=O)[nH]c3ccccc23)c1` was tested, and the “hERG current change (%, negative = inhibition) at 10uM” value was -9.21%.
In the case of `CCOC(=O)C1CCN(C2CCN(Cc3nc(-c4ccccc4)no3)CC2)CC1`, the “hERG current change (%, negative = inhibition) at 10uM” value is reported as -71.5%.
`O=C(CSc1nnc(C2CC2)n1CC1CCCO1)Nc1cccc(Cl)c1` (stereo not drawn) was tested, and the “hERG current change (%, negative = inhibition) at 10uM” value was -56.1%.
`CC(C)c1ccc(N=Cc2c(O)c3ccccc3oc2=O)cc1` was tested, and the “hERG current change (%, negative = inhibition) at 10uM” value was 16.3%.
With `CCN(CC)c1ccc(C2N(C(=O)N3CCOCC3)CCN2S(=O)(=O)c2ccc(C)cc2)cc1` (stereo not drawn) the “hERG current change (%, negative = inhibition) at 10uM” value was -18%.
For `O=C(O)c1cc(=O)n(Cc2ccccc2)c(=O)[nH]1`, the “hERG current change (%, negative = inhibition) at 10uM” value was 15%.
With `CCOC(=O)c1c(NC(=O)CCC(=O)N2CCOCC2)sc2c1CC(C)(C)OC2` the “hERG current change (%, negative = inhibition) at 10uM” value was -6%.
With `COc1ccc(CCN2CCCn3c2nc2c3c(=O)n(CC(C)C)c(=O)n2C)cc1OC` the “hERG current change (%, negative = inhibition) at 10uM” value was -40.9%.
In the case of `Cc1ccc(SCc2noc(C(=O)NC(C)C)c2C(=O)O)cc1C`, the “hERG current change (%, negative = inhibition) at 10uM” value is reported as 7.76%.
`O=C(NCc1ccccc1CN1CCCC1)c1cccc(S(=O)(=O)Nc2ccc(F)cc2)c1` was tested, and the “hERG current change (%, negative = inhibition) at 10uM” value was -75.2%.
For `CCCc1cc(=O)[nH]c(SCC(=O)NC2(C#N)CCCCC2)n1`, the “hERG current change (%, negative = inhibition) at 10uM” value was 8.07%.
For `O=C(CNC(=O)c1ccc(Cl)cc1Cl)OCN1C(=O)c2ccccc2C1=O`, the “hERG current change (%, negative = inhibition) at 10uM” value was 3.68%.
For `O=C1CC(NC23CC4CC(CC(C4)C2)C3)C(=O)N1c1ccc2c(c1)OCO2` (stereo not drawn), the “hERG current change (%, negative = inhibition) at 10uM” value was 1.53%.
`O=C(NCCNS(=O)(=O)c1ccc(Cl)cc1)c1cc(OCC(F)(F)F)ccc1OCC(F)(F)F` was tested, and the “hERG current change (%, negative = inhibition) at 10uM” value was 5.11%.
For `Cc1cccc(OCC(=O)Nc2nc3ccc([N+](=O)[O-])cc3s2)c1C`, the “hERG current change (%, negative = inhibition) at 10uM” value was 15.3%.
In the case of `CN(Cc1ccccc1F)C(=O)CNC(=O)Cc1cccc2ccccc12`, the “hERG current change (%, negative = inhibition) at 10uM” value is reported as -3.65%.
`COc1cc(C(=O)NCC2(c3ccccc3)CCCC2)ccc1OC(C)C` was tested, and the “hERG current change (%, negative = inhibition) at 10uM” value was -24.2%.
In the case of `CCOC(=O)C(NC(=O)Nc1ccc(Cl)cn1)(Oc1ccccc1)C(F)(F)F` (stereo not drawn), the “hERG current change (%, negative = inhibition) at 10uM” value is reported as 4.75%.
For `Cc1cccc(N(CC(O)CN2CCCC2)S(=O)(=O)c2ccccc2)c1` (stereo not drawn), the “hERG current change (%, negative = inhibition) at 10uM” value was -57%.
